# Experimental data reported in the supplement of paper PMC4604168 (melanoma cell lines).
# This is one part of the list. Repeats are few or missing, and single values can be far off.
# Assays:
# Test in all cases: cell count relative to DMSO control; melanoma cells; higher = more viable cells
# Conditions in all cases: library dose: standard library concentration; 72 h; first compound 2 µM
# [1] = tested on: G361
# [2] = tested on: IPC-298
# [3] = tested on: IST-MEL1
# [4] = tested on: LB2518-MEL
# [5] = tested on: LOXIMVI
# [6] = tested on: MEL-HO
# [7] = tested on: MZ2-MEL
# [8] = tested on: MeWo
# [9] = tested on: RPMI7951
# [10] = tested on: RVH-421
# [11] = tested on: SkMel28
# [12] = tested on: SkMel2
# [13] = tested on: SkMel30
# [14] = tested on: SkMel5
# [15] = tested on: UACC257
# [16] = tested on: UACC62
# [17] = tested on: WM115
# [18] = tested on: WM1716
# [19] = tested on: WM1745
# [20] = tested on: WM3526
# 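Note: cells treated in 1,536-well plates, then fixed and DAPI-stained, with nuclei counted from automated high-throughput microscope images.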
Compound,cell count [1],cell count [2],cell count [3],cell count [4],cell count [5],cell count [6],cell count [7],cell count [8],cell count [9],cell count [10],cell count [11],cell count [12],cell count [13],cell count [14],cell count [15],cell count [16],cell count [17],cell count [18],cell count [19],cell count [20]
CCCCCCCCCCCCCCCCCCOP(=O)([O-])OC1CC[N+](C)(C)CC1 [Perifosine] + Cc1ccc(NC(=O)c2cccc(N(C)C)c2)cc1NC(=O)c1ccc(O)cc1 [ZM336372] (partner dose 10 µM),101%,104%,88.3%,97.7%,86.9%,88.1%,91.8%,82.7%,14.3%,80.8%,85.6%,99.3%,97.7%,89.7%,81.3%,70.1%,85.7%,98.3%,69.3%,82.6%
CCCCCCCCCCCCCCCCCCOP(=O)([O-])OC1CC[N+](C)(C)CC1 [Perifosine] + O=C(O)c1ccc2c(c1)nc(Nc1cccc(Cl)c1)c1ccncc12 [CX4945] (partner dose 2 µM),58.4%,81.5%,80.1%,101%,49.5%,54.8%,73.7%,83.5%,25.1%,92.4%,70.3%,52%,68%,77.4%,110%,76.2%,94.8%,82.4%,77.3%,56%
Cn1sc(=O)n(Cc2ccccc2)c1=O + Cc1nc(Nc2ncc(C(=O)Nc3c(C)cccc3Cl)s2)cc(N2CCN(CCO)CC2)n1 [dasatanib] (partner dose 0.02 µM),74.6%,99.2%,79.5%,87.4%,14.3%,79.7%,63.5%,80.8%,33.8%,63.8%,69.6%,87.8%,103%,62.3%,86.4%,68.1%,65.3%,77.7%,42.7%,79.5%
CCCCCCCCCCCCCCCCCCOP(=O)([O-])OC1CC[N+](C)(C)CC1 [Perifosine] + CCCS(=O)(=O)Nc1ccc(F)c(C(=O)c2c[nH]c3ncc(Cl)cc23)c1F [PLX4720] (partner dose 0.4 µM),82.8%,78.8%,102%,121%,94.5%,113%,85.3%,94.7%,34.6%,77.1%,56.7%,113%,82.6%,89.7%,113%,47.4%,107%,81.7%,103%,70.1%
CCCCCCCCCCCCCCCCCCOP(=O)([O-])OC1CC[N+](C)(C)CC1 [Perifosine] + CO[C@@H]1[C@H](N(C)C(=O)c2ccccc2)C[C@H]2O[C@]1(C)n1c3ccccc3c3c4c(c5c6ccccc6n2c5c31)C(=O)NC4 [Midostaurin] (partner dose 0.4 µM),17.8%,56.4%,64.1%,64.2%,49.3%,73%,48.8%,66.8%,34.3%,30.4%,22.5%,42.5%,49.1%,56.1%,53.8%,59.8%,49.5%,24.9%,27.9%,63.5%
C[C@@H](N)c1ccc(C(=O)Nc2ccnc3[nH]ccc23)cc1 + COc1ccc(Cl)c(Nc2nc3ccccc3nc2NS(=O)(=O)c2cccc(NC(=O)C(C)(C)N)c2)c1 [XL147] (partner dose 4 µM),79%,83.6%,61.1%,105%,87.3%,37.2%,39.3%,61.5%,63.6%,46.8%,111%,80.5%,87.4%,58.5%,42.5%,91.3%,89.4%,63.5%,44.9%,82.2%
CCCCCCCCCCCCCCCCCCOP(=O)([O-])OC1CC[N+](C)(C)CC1 [Perifosine] + O=C(O)c1ccc(-c2c[nH]c3ncc(-c4ccccc4)cc23)cc1C1CCCC1 [GSK650394] (partner dose 0.8 µM),75.8%,92.9%,93.8%,82.4%,54.8%,59.4%,122%,91.2%,15.8%,103%,37.7%,65.5%,105%,74.3%,87.8%,84.3%,87.1%,85.7%,72.5%,79.6%
CCCCCCCCCCCCCCCCCCOP(=O)([O-])OC1CC[N+](C)(C)CC1 [Perifosine] + NCC(=O)Nc1ccc(-n2nc(C(F)(F)F)cc2-c2ccc3c(ccc4ccccc43)c2)cc1 [OSU03012] (partner dose 5 µM),66.3%,57.8%,86.2%,82.7%,83.2%,68.7%,85.4%,108%,43.9%,67.7%,16.3%,30.6%,36.1%,61.7%,68.1%,83.4%,78.4%,83.3%,99.5%,50.9%
CCCCCCCCCCCCCCCCCCOP(=O)([O-])OC1CC[N+](C)(C)CC1 [Perifosine] + CC(=O)O[C@@]12CO[C@@H]1C[C@H](O)[C@@]1(C)C(=O)[C@H](O)C3=C(C)[C@@H](OC(=O)[C@H](O)[C@@H](NC(=O)OC(C)(C)C)c4ccccc4)C[C@@](O)([C@@H](OC(=O)c4ccccc4)[C@H]21)C3(C)C [Docetaxel] (partner dose 0.0005 µM),20.1%,57.4%,36.1%,59.9%,59%,39.5%,57.5%,32.5%,7.51%,77.1%,30.4%,34.9%,50.2%,41.3%,72.3%,60.1%,37.6%,39.8%,45.6%,45.8%
